Assay results from the supplement of paper PMC10338343.
± gives the standard deviation. The entries are a selection whose mix differs from that of the whole data set.

These sequences were tested on MIWI (PIWIL1) piRISC loaded with L1MC piRNA (30 nt) (assay: pre-steady-state target cleavage rate (min^-1); MIWI and MILI are mouse PIWI proteins and EfPiwi is from a freshwater sponge; tags in brackets are library labels; higher = faster piRNA-guided slicing of the target). Settings: guide: L1MC piRNA 5'p-UAACUAAAUACUAUGCAAGCUGUAGGUCCU; auxiliary factor: 500 nM mouse GTSF1.
Procedure: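 Cleave-'n-Seq: a library of target RNAs (target site embedded in constant flanks, ACAGCATTCCGCGTTAGTGATATCCG... 5' flank; DNA-blocked outside the site) at 0.1 nM was incubated with 1 nM active mouse MILI or MIWI piRISC (synthetic 5'-monophosphorylated piRNA guide) with or without 500 nM mouse GTSF1 at 33 °C for 1 min to 16 h. Uncleaved targets were sequenced and normalised to non-target controls, and the pooled three trials were fitted to a burst-and-steady-state model to give the pre-steady-state cleavage rate (min^-1; k3 is constrained to at most 1e-4). Sequence is the target site only; target names encode pairing extent (gX:gY) and contiguous / 1-mismatch / 2-mismatch / bulge geometry. Fits with R² ≤ 0 are excluded.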

| Sequence | pre-steady-state target cleavage rate |
| --- | --- |
| UCCUGGAACUGCUUGCAUAGUAUAUAGUUA | 0.248 ± 0.027 |
| UCCUGGAUGAGCUUGCAUUGAAUUUAGUUA | 0.0232 ± 0.0044 |
| UCCUGGAUGAGCUUCCAUAGUAAUUAGUUA | 0.00538 ± 0.0047 |
| UCCACCUACAGCUUGCUUAGUAUUUACUUA | 0.425 ± 0.044 |
| UCCUGGAACAGCUUGCAUAGUAUUUAGAAA | 0.268 ± 0.035 |
| UCCUGGAUGUCCUUGCACAGUAUUUAGUUA | 0.181 ± 0.027 |
| UCCAGCUACAGGUUGCAUAGUAUUUAGUUA | 0.959 ± 0.046 |
| UCCUGGUACAGCUUGCUAAGUAUUUAGUUA | 0.15 ± 0.014 |
| UCCUGCUACUGCUUGCAUAGUAUUUACAAA | 0.0981 ± 0.019 |
| UCCACCUACAGCUUGCAAUCUAUUUAGAAA | 0.0562 ± 0.019 |
| UGGACCUACAGCUUGCUUUGUAUUUAGUUA | 0.222 ± 0.026 |
| UCCUGGAUGUGCUUGCAUAGUUUUAAGUUA | 0.00545 ± 0.0045 |
| UCCUGGAUGUGCUUGCAUAGUAUUUCAGUUA | 0.0886 ± 0.017 |
| UGGACCUACAGCUUGCAUAGUAGUUAGUUA | 0.821 ± 0.048 |
| UCCUCCUACAGGUUGCAUAGUAUUUAGUUA | 0.963 ± 0.043 |
| UCCUGGAUGAGCUUGCAUACUAAUUAGUUA | 0.0176 ± 0.0046 |
| UCCACCUACAGGAAGCAUAGUAUUUAGUUA | 0.767 ± 0.07 |
| UCCACCUACAGCUUGCAUAGUAAUUAGUUA | 0.745 ± 0.051 |
| AGGACCUACAGCUUGCAUAGUAUUGUAGUUA | 0.601 ± 0.089 |
| UCCUGGUUCUGCUUGCAUAGUAUUUAGUUA | 0.785 ± 0.049 |
| UCCUGCUACAGCUUGCAUAGUAUUAUCUAA | 0.194 ± 0.036 |
| UCCACCUACAGCUUGCAUAGUAUUUUCUUA | 0.385 ± 0.053 |

Same assay, conditions: guide: L1MC piRNA 5'p-UAACUAAAUACUAUGCAAGCUGUAGGUCCU; auxiliary factor: none (no GTSF1)

| Sequence | pre-steady-state target cleavage rate |
| --- | --- |
| UCCUGGAACUGCUUGCAUAGUAUAUAGUUA | 0.0165 ± 0.0056 |
| UCCUGGAUGAGCUUGCAUUGAAUUUAGUUA | 0.00429 ± 0.0025 |
| UCCACCUACAGCUUGCUUAGUAUUUACUUA | 0.0184 ± 0.0042 |
| UCCUGGAACAGCUUGCAUAGUAUUUAGAAA | 0.0129 ± 0.004 |
| UCCUGGAUGUCCUUGCACAGUAUUUAGUUA | 0.0108 ± 0.0026 |
| UCCAGCUACAGGUUGCAUAGUAUUUAGUUA | 0.0231 ± 0.0034 |
| UCCUGGUACAGCUUGCUAAGUAUUUAGUUA | 0.00792 ± 0.0027 |
| UCCUGCUACUGCUUGCAUAGUAUUUACAAA | 0.0026 ± 0.0021 |
| UGGACCUACAGCUUGCUUUGUAUUUAGUUA | 0.00649 ± 0.0017 |
| UCCUGGAUGUGCUUGCAUAGUAUUUCAGUUA | 0.00753 ± 0.0028 |
| UGGACCUACAGCUUGCAUAGUAGUUAGUUA | 0.031 ± 0.0074 |
| UCCUCCUACAGGUUGCAUAGUAUUUAGUUA | 0.0283 ± 0.0052 |
| UCCUGGAUGAGCUUGCAUACUAAUUAGUUA | 0.00533 ± 0.0015 |
| UCCACCUACAGGAAGCAUAGUAUUUAGUUA | 0.00581 ± 0.0017 |
| UCCACCUACAGCUUGCAUAGUAAUUAGUUA | 0.0222 ± 0.0057 |
| AGGACCUACAGCUUGCAUAGUAUUGUAGUUA | 0.0696 ± 0.014 |
| UCCUGGUUCUGCUUGCAUAGUAUUUAGUUA | 0.0365 ± 0.0078 |
| UCCACCUACAGCUUGCAUAGUAUUUUCUUA | 0.0112 ± 0.0039 |
